Some of the results follow.
Legend:
Assay in all cases: glycan array binding signal (z-score within array); higher = stronger binding
Conditions in all cases: glycan notation: IUPAC condensed, linker removed
[1] = target: Gal(b1-3)[Fuc(a1-4)]GlcNAc(b1-3)Gal(b1-4)[Fuc(a1-3)]GlcNAc
How it was run: (§1)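 Arrays were curated from the Consortium for Functional Glycomics database, 3228 in total, and kept only where the protein sequence was available. Binding is expressed as a within-array Z-score. This score was averaged across arrays of the same protein sequence at different concentrations or buffers and across linkers, and negative values can be read as non-binding.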

[2] = target: Gal(b1-3)[GlcNAc(b1-6)]GalNAc
How it was run: as §1

[3] = target: Gal(b1-3)[Neu5Ac(a2-6)]GalNAc
How it was run: as §1

[4] = target: Gal(b1-3)[Neu5Ac(a2-6)]GlcNAc(b1-6)Gal(b1-4)Glc
How it was run: as §1

[5] = target: Gal(b1-3)[Neu5Ac(b2-6)]GalNAc
How it was run: as §1

[6] = target: Gal(b1-4)GalNAc(a1-3)[Fuc(a1-2)]Gal(b1-4)GlcNAc
How it was run: as §1

[7] = target: Gal(b1-4)GalNAc(b1-3)[Fuc(a1-2)]Gal(b1-4)GlcNAc
How it was run: as §1

Gal(b1-4)Glc = target: Gal(b1-4)Glc
How it was run: as §1

Gal(b1-4)Glc6S = target: Gal(b1-4)Glc6S
How it was run: as §1

Gal(b1-4)GlcNAc = target: Gal(b1-4)GlcNAc
How it was run: as §1

[8] = target: Gal(b1-4)GlcNAc(a1-6)Gal(b1-4)GlcNAc
How it was run: as §1

[9] = target: Gal(b1-4)GlcNAc(b1-2)Man(a1-3)[Gal(b1-4)GlcNAc(b1-2)Man(a1-6)]Man(b1-4)GlcNAc(b1-4)GlcNAc
How it was run: as §1

[10] = target: Gal(b1-4)GlcNAc(b1-3)Gal(b1-3)GlcNAc
How it was run: as §1

[11] = target: Gal(b1-4)GlcNAc(b1-3)Gal(b1-4)Glc
How it was run: as §1

[12] = target: Gal(b1-4)GlcNAc(b1-3)Gal(b1-4)GlcNAc
How it was run: as §1

[13] = target: Gal(b1-4)GlcNAc(b1-3)Gal(b1-4)GlcNAc(b1-3)Gal(b1-4)GlcNAc
How it was run: as §1

[14] = target: Gal(b1-4)GlcNAc(b1-3)Gal(b1-4)[Fuc(a1-3)]GlcNAc(b1-3)Gal(b1-4)[Fuc(a1-3)]GlcNAc
How it was run: as §1

[15] = target: Gal(b1-4)GlcNAc(b1-3)GalNAc
How it was run: as §1

[16] = target: Gal(b1-4)GlcNAc(b1-3)[Gal(b1-4)GlcNAc(b1-6)]Gal(b1-4)GlcNAc
How it was run: as §1

[17] = target: Gal(b1-4)GlcNAc(b1-3)[GlcNAc(b1-6)]Gal(b1-4)GlcNAc
How it was run: as §1

[18] = target: Gal(b1-4)GlcNAc(b1-6)Gal(b1-4)GlcNAc
How it was run: as §1

[19] = target: Gal(b1-4)GlcNAc(b1-6)Gal(b1-4)GlcNAc(b1-6)GalNAc
How it was run: as §1

[20] = target: Gal(b1-4)GlcNAc(b1-6)GalNAc
How it was run: as §1

[21] = target: Gal(b1-4)GlcNAc(b1-6)[Gal(b1-3)]GalNAc
How it was run: as §1

Gal3S(b1-3)GalNAc = target: Gal3S(b1-3)GalNAc
How it was run: as §1

Gal3S(b1-3)GlcNAc = target: Gal3S(b1-3)GlcNAc
How it was run: as §1

[22] = target: Gal3S(b1-3)[Fuc(a1-4)]GlcNAc
How it was run: as §1

Gal3S(b1-4)Glc = target: Gal3S(b1-4)Glc
How it was run: as §1

Gal3S(b1-4)Glc6S = target: Gal3S(b1-4)Glc6S
How it was run: as §1

Gal3S(b1-4)GlcNAc = target: Gal3S(b1-4)GlcNAc
How it was run: as §1

Gal3S(b1-4)GlcNAc6S = target: Gal3S(b1-4)GlcNAc6S
How it was run: as §1

[23] = target: Gal3S(b1-4)[Fuc(a1-3)]Glc
How it was run: as §1

Gal3S4S(b1-4)GlcNAc = target: Gal3S4S(b1-4)GlcNAc
How it was run: as §1

Gal3S6S(b1-4)GlcNAc = target: Gal3S6S(b1-4)GlcNAc
How it was run: as §1

Gal3S6S(b1-4)GlcNAc6S = target: Gal3S6S(b1-4)GlcNAc6S
How it was run: as §1

Gal4S(b1-4)GlcNAc = target: Gal4S(b1-4)GlcNAc
How it was run: as §1

Gal4S6S(b1-4)GlcNAc = target: Gal4S6S(b1-4)GlcNAc
How it was run: as §1

Gal6S(b1-4)Glc = target: Gal6S(b1-4)Glc
How it was run: as §1

Gal6S(b1-4)Glc6S = target: Gal6S(b1-4)Glc6S
How it was run: as §1

Gal6S(b1-4)GlcNAc = target: Gal6S(b1-4)GlcNAc
How it was run: as §1

Gal6S(b1-4)GlcNAc6S = target: Gal6S(b1-4)GlcNAc6S
How it was run: as §1

GalNAc(a1-3)Gal = target: GalNAc(a1-3)Gal
How it was run: as §1

GalNAc(a1-3)GalNAc = target: GalNAc(a1-3)GalNAc
How it was run: as §1

GalNAc(b1-3)Gal = target: GalNAc(b1-3)Gal
How it was run: as §1

[24] = target: GalNAc(b1-3)Gal(a1-4)Gal(b1-4)GlcNAc
How it was run: as §1

B1: GH95CBM (Clostridium perfringens) (protein)
chain: EKVAVETSVYLSELEWKSASTGYGEIQKDASCDGNTITLKGENGEKVSYDKGIGTHAHSEIVYSLEGLDYYDYFETFVGVDQEMAGTVASISFEVYLDNEKVFDSGLMTGDTTQKHVKVPIAGKNTLKLVVKDGGDSIGSDHGSFGDAKLT
- glycan array binding signal (z-score) [1]: 0.524
- glycan array binding signal (z-score) [2]: -0.121
- glycan array binding signal (z-score) [3]: -0.325
- glycan array binding signal (z-score) [4]: -0.359
- glycan array binding signal (z-score) [5]: -0.298
- glycan array binding signal (z-score) [6]: -0.321
- glycan array binding signal (z-score) [7]: 4.18
- glycan array binding signal (z-score) (Gal(b1-4)Glc): 1.72
- glycan array binding signal (z-score) (Gal(b1-4)Glc6S): -0.33
- glycan array binding signal (z-score) (Gal(b1-4)GlcNAc): -0.358
- glycan array binding signal (z-score) [8]: -0.283
- glycan array binding signal (z-score) [9]: 1.83
- glycan array binding signal (z-score) [10]: -0.319
- glycan array binding signal (z-score) [11]: -0.332
- glycan array binding signal (z-score) [12]: -0.281
- glycan array binding signal (z-score) [13]: -0.269
- glycan array binding signal (z-score) [14]: 2.8
- glycan array binding signal (z-score) [15]: 2.54
- glycan array binding signal (z-score) [16]: -0.311
- glycan array binding signal (z-score) [17]: -0.326
- glycan array binding signal (z-score) [18]: -0.277
- glycan array binding signal (z-score) [19]: -0.334
- glycan array binding signal (z-score) [20]: -0.293
- glycan array binding signal (z-score) [21]: 3.34
- glycan array binding signal (z-score) (Gal3S(b1-3)GalNAc): -0.327
- glycan array binding signal (z-score) (Gal3S(b1-3)GlcNAc): -0.295
- glycan array binding signal (z-score) [22]: -0.388
- glycan array binding signal (z-score) (Gal3S(b1-4)Glc): -0.345
- glycan array binding signal (z-score) (Gal3S(b1-4)Glc6S): -0.242
- glycan array binding signal (z-score) (Gal3S(b1-4)GlcNAc): -0.305
- glycan array binding signal (z-score) (Gal3S(b1-4)GlcNAc6S): -0.305
- glycan array binding signal (z-score) [23]: -0.328
- glycan array binding signal (z-score) (Gal3S4S(b1-4)GlcNAc): -0.295
- glycan array binding signal (z-score) (Gal3S6S(b1-4)GlcNAc): -0.298
- glycan array binding signal (z-score) (Gal3S6S(b1-4)GlcNAc6S): -0.208
- glycan array binding signal (z-score) (Gal4S(b1-4)GlcNAc): -0.339
- glycan array binding signal (z-score) (Gal4S6S(b1-4)GlcNAc): -0.321
- glycan array binding signal (z-score) (Gal6S(b1-4)Glc): -0.349
- glycan array binding signal (z-score) (Gal6S(b1-4)Glc6S): -0.149
- glycan array binding signal (z-score) (Gal6S(b1-4)GlcNAc): -0.248
- glycan array binding signal (z-score) (Gal6S(b1-4)GlcNAc6S): -0.36
- glycan array binding signal (z-score) (GalNAc(a1-3)Gal): 0.021
- glycan array binding signal (z-score) (GalNAc(a1-3)GalNAc): -0.24
- glycan array binding signal (z-score) (GalNAc(b1-3)Gal): 3.84
- glycan array binding signal (z-score) [24]: 6.95

From the supplement of paper PMC8728848
